# Experimental data reported in the supplement of paper PMC8728848.
# The other results are listed elsewhere or left out.
# Assays:
# Experiment in all cases: glycan array binding signal (z-score within array); higher = stronger binding
# Settings in all cases: glycan notation: IUPAC condensed, linker removed
# Fuc(a1-2)Gal = target: Fuc(a1-2)Gal
# Outline: (§1)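 The Consortium for Functional Glycomics database supplied 3228 glycan arrays, of which those lacking an available protein sequence were dropped. The binding signal, a within-array Z-score, was averaged across arrays of the same protein sequence and across linkers. Negative scores can be read as non-binding.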
# Fuc(a1-2)Gal(b1-3)GalNAc = target: Fuc(a1-2)Gal(b1-3)GalNAc
# Outline: as §1
# [1] = target: Fuc(a1-2)Gal(b1-3)GalNAc(a1-3)[Fuc(a1-2)]Gal(b1-4)Glc
# Outline: as §1
# [2] = target: Fuc(a1-2)Gal(b1-3)GalNAc(a1-3)[Fuc(a1-2)]Gal(b1-4)GlcNAc
# Outline: as §1
# [3] = target: Fuc(a1-2)Gal(b1-3)GalNAc(b1-3)Gal
# Outline: as §1
# [4] = target: Fuc(a1-2)Gal(b1-3)GalNAc(b1-3)Gal(a1-4)Gal(b1-4)Glc
# Outline: as §1
# [5] = target: Fuc(a1-2)Gal(b1-3)GalNAc(b1-4)[Neu5Ac(a2-3)]Gal(b1-4)Glc
# Outline: as §1
# Fuc(a1-2)Gal(b1-3)GlcNAc = target: Fuc(a1-2)Gal(b1-3)GlcNAc
# Outline: as §1
# [6] = target: Fuc(a1-2)Gal(b1-3)GlcNAc(b1-2)Man(a1-3)[Fuc(a1-2)Gal(b1-3)GlcNAc(b1-2)Man(a1-6)]Man(b1-4)GlcNAc(b1-4)GlcNAc
# Outline: as §1
# [7] = target: Fuc(a1-2)Gal(b1-3)GlcNAc(b1-2)Man(a1-3)[Fuc(a1-2)Gal(b1-3)GlcNAc(b1-2)Man(a1-6)]Man(b1-4)GlcNAc(b1-4)[Fuc(a1-6)]GlcNAc
# Outline: as §1
# [8] = target: Fuc(a1-2)Gal(b1-3)GlcNAc(b1-3)Gal(b1-4)Glc
# Outline: as §1
# [9] = target: Fuc(a1-2)Gal(b1-3)GlcNAc(b1-3)GalNAc
# Outline: as §1
# [10] = target: Fuc(a1-2)Gal(b1-3)GlcNAc(b1-3)[Fuc(a1-2)Gal(b1-3)GlcNAc(b1-6)]GalNAc
# Outline: as §1
# [11] = target: Fuc(a1-2)Gal(b1-3)GlcNAc(b1-3)[Gal(b1-4)GlcNAc(b1-6)]Gal(b1-4)Glc
# Outline: as §1
# [12] = target: Fuc(a1-2)Gal(b1-3)GlcNAc(b1-3)[Gal(b1-4)[Fuc(a1-3)]GlcNAc(b1-6)]Gal(b1-4)Glc
# Outline: as §1
# [13] = target: Fuc(a1-2)Gal(b1-3)GlcNAc(b1-3)[Neu5Ac(a2-6)Gal(b1-4)GlcNAc(b1-6)]Gal(b1-4)Glc
# Outline: as §1
# [14] = target: Fuc(a1-2)Gal(b1-3)GlcNAc6S
# Outline: as §1
# [15] = target: Fuc(a1-2)Gal(b1-3)[Fuc(a1-4)]GlcNAc
# Outline: as §1
# [16] = target: Fuc(a1-2)Gal(b1-3)[Fuc(a1-4)]GlcNAc(b1-2)Man(a1-3)[Fuc(a1-2)Gal(b1-3)[Fuc(a1-4)]GlcNAc(b1-2)Man(a1-3)]Man(b1-4)GlcNAc(b1-4)GlcNAc
# Outline: as §1
# [17] = target: Fuc(a1-2)Gal(b1-3)[Fuc(a1-4)]GlcNAc(b1-2)Man(a1-3)[Fuc(a1-2)Gal(b1-3)[Fuc(a1-4)]GlcNAc(b1-2)Man(a1-6)]Man(b1-4)GlcNAc(b1-4)GlcNAc
# Outline: as §1
# [18] = target: Fuc(a1-2)Gal(b1-3)[Fuc(a1-4)]GlcNAc(b1-2)Man(a1-3)[Fuc(a1-2)Gal(b1-3)[Fuc(a1-4)]GlcNAc(b1-2)Man(a1-6)]Man(b1-4)GlcNAc(b1-4)[Fuc(a1-6)]GlcNAc(b1-4)[Fuc(a1-6)]GlcNAc
# Outline: as §1
# [19] = target: Fuc(a1-2)Gal(b1-3)[Fuc(a1-4)]GlcNAc(b1-3)[Fuc(a1-3)[Gal(b1-4)]GlcNAc(b1-6)]Gal(b1-4)Glc
# Outline: as §1
# [20] = target: Fuc(a1-2)Gal(b1-3)[Fuc(a1-4)]GlcNAc(b1-3)[Gal(b1-4)GlcNAc(b1-6)]Gal(b1-4)Glc
# Outline: as §1
# [21] = target: Fuc(a1-2)Gal(b1-4)Fuc(a1-3)]GlcNAc(b1-2)Man(a1-3)[Fuc(a1-2)Gal(b1-4)[Fuc(a1-3)]GlcNAc(b1-2)Man(a1-6)]Man(b1-4)GlcNAc(b1-4)GlcNAc
# Outline: as §1
# Fuc(a1-2)Gal(b1-4)Glc = target: Fuc(a1-2)Gal(b1-4)Glc
# Outline: as §1
# Fuc(a1-2)Gal(b1-4)Glc6S = target: Fuc(a1-2)Gal(b1-4)Glc6S
# Outline: as §1
# Fuc(a1-2)Gal(b1-4)GlcNAc = target: Fuc(a1-2)Gal(b1-4)GlcNAc
# Outline: as §1
# [22] = target: Fuc(a1-2)Gal(b1-4)GlcNAc(b1-2)Man
# Outline: as §1
# [23] = target: Fuc(a1-2)Gal(b1-4)GlcNAc(b1-2)Man(a1-3)[Fuc(a1-2)Gal(b1-4)GlcNAc(b1-2)Man(a1-6)]Man(b1-4)GlcNAc(b1-4)GlcNAc
# Outline: as §1
# [24] = target: Fuc(a1-2)Gal(b1-4)GlcNAc(b1-2)Man(a1-3)[Fuc(a1-2)Gal(b1-4)GlcNAc(b1-2)Man(a1-6)]Man(b1-4)GlcNAc(b1-4)[Fuc(a1-6)]GlcNAc
# Outline: as §1
# [25] = target: Fuc(a1-2)Gal(b1-4)GlcNAc(b1-2)[Fuc(a1-2)Gal(b1-4)GlcNAc(b1-4)]Man(a1-3)[Fuc(a1-2)Gal(b1-4)GlcNAc(b1-2)Man(a1-6)]Man(b1-4)GlcNAc(b1-4)GlcNAc
# Outline: as §1
# [26] = target: Fuc(a1-2)Gal(b1-4)GlcNAc(b1-3)Gal(b1-4)GlcNAc
# Outline: as §1
# [27] = target: Fuc(a1-2)Gal(b1-4)GlcNAc(b1-3)Gal(b1-4)GlcNAc(b1-2)Man(a1-3)[Fuc(a1-2)Gal(b1-4)GlcNAc(b1-3)Gal(b1-4)GlcNAc(b1-2)Man(a1-6)]Man(b1-4)GlcNAc(b1-4)GlcNAc
# Outline: as §1
# [28] = target: Fuc(a1-2)Gal(b1-4)GlcNAc(b1-3)Gal(b1-4)GlcNAc(b1-3)Gal(b1-4)GlcNAc
# Outline: as §1
# [29] = target: Fuc(a1-2)Gal(b1-4)GlcNAc(b1-3)GalNAc
# Outline: as §1
# [30] = target: Fuc(a1-2)Gal(b1-4)GlcNAc(b1-3)[Fuc(a1-2)Gal(b1-4)GlcNAc(b1-6)]GalNAc
# Outline: as §1
# [31] = target: Fuc(a1-2)Gal(b1-4)GlcNAc(b1-3)[Fuc(a1-3)[Gal(b1-4)]GlcNAc(b1-6)]Gal(b1-4)Glc
# Outline: as §1
# [32] = target: Fuc(a1-2)Gal(b1-4)GlcNAc(b1-6)GalNAc
# Outline: as §1
# [33] = target: Fuc(a1-2)Gal(b1-4)GlcNAc6S
# Outline: as §1
# [34] = target: Fuc(a1-2)Gal(b1-4)[Fuc(a1-3)]GlcNAc
# Outline: as §1
# [35] = target: Fuc(a1-2)Gal(b1-4)[Fuc(a1-3)]GlcNAc(b1-2)Man(a1-3)[Fuc(a1-2)Gal(b1-4)[Fuc(a1-3)]GlcNAc(b1-2)Man(a1-6)]Man(b1-4)GlcNAc(b1-4)GlcNAc
# Outline: as §1
# [36] = target: Fuc(a1-2)Gal(b1-4)[Fuc(a1-3)]GlcNAc(b1-2)Man(a1-3)[Fuc(a1-2)Gal(b1-4)[Fuc(a1-3)]GlcNAc(b1-2)Man(a1-6)]Man(b1-4)GlcNAc(b1-4)[Fuc(a1-6)]GlcNAc
# Outline: as §1
# [37] = target: Fuc(a1-2)Gal(b1-4)[Fuc(a1-3)]GlcNAc(b1-2)[Fuc(a1-2)Gal(b1-4)[Fuc(a1-3)]GlcNAc(b1-4)]Man(a1-3)[Fuc(a1-2)Gal(b1-4)[Fuc(a1-3)]GlcNAc(b1-2)Man(a1-6)]Man(b1-4)GlcNAc(b1-4)GlcNAc
# Outline: as §1
# [38] = target: Fuc(a1-2)Gal(b1-4)[Fuc(a1-3)]GlcNAc(b1-3)Gal(b1-4)[Fuc(a1-3)]GlcNAc
# Outline: as §1
# [39] = target: Fuc(a1-2)Gal(b1-4)[Fuc(a1-3)]GlcNAc(b1-3)Gal(b1-4)[Fuc(a1-3)]GlcNAc(b1-3)Gal(b1-4)[Fuc(a1-3)]GlcNAc
# Outline: as §1
binder,measurement,setting,value
"GNA (Galanthus nivalis), P30617 (protein) MAKASLLILAAIFLGVITPSCLSDNILYSGETLSTGEFLNYGSFVFIMQEDCNLVLYDVDKPIWATNTGGLSRSCFLSMQTDGNLVVYNPSNKPIWASNTGGQNGNYVCILQKDRNVVIYGTDRWATGTHTGLVGIPASPPSEKYPTAGKIKLVTAK",glycan array binding signal (z-score),Fuc(a1-2)Gal,-0.113
same,glycan array binding signal (z-score),Fuc(a1-2)Gal(b1-3)GalNAc,-0.207
same,glycan array binding signal (z-score),[1],-0.135
same,glycan array binding signal (z-score),[2],-0.155
same,glycan array binding signal (z-score),[3],-0.183
same,glycan array binding signal (z-score),[4],-0.199
same,glycan array binding signal (z-score),[5],-0.228
same,glycan array binding signal (z-score),Fuc(a1-2)Gal(b1-3)GlcNAc,-0.167
same,glycan array binding signal (z-score),[6],0.118
same,glycan array binding signal (z-score),[7],0.254
same,glycan array binding signal (z-score),[8],-0.178
same,glycan array binding signal (z-score),[9],-0.172
same,glycan array binding signal (z-score),[10],-0.148
same,glycan array binding signal (z-score),[11],-0.168
same,glycan array binding signal (z-score),[12],-0.082
same,glycan array binding signal (z-score),[13],-0.17
same,glycan array binding signal (z-score),[14],-0.155
same,glycan array binding signal (z-score),[15],-0.166
same,glycan array binding signal (z-score),[16],-0.097
same,glycan array binding signal (z-score),[17],0.191
same,glycan array binding signal (z-score),[18],-0.009
same,glycan array binding signal (z-score),[19],-0.172
same,glycan array binding signal (z-score),[20],-0.144
same,glycan array binding signal (z-score),[21],-0.129
same,glycan array binding signal (z-score),Fuc(a1-2)Gal(b1-4)Glc,-0.153
same,glycan array binding signal (z-score),Fuc(a1-2)Gal(b1-4)Glc6S,-0.048
same,glycan array binding signal (z-score),Fuc(a1-2)Gal(b1-4)GlcNAc,-0.169
same,glycan array binding signal (z-score),[22],-0.156
same,glycan array binding signal (z-score),[23],-0.066
same,glycan array binding signal (z-score),[24],0.132
same,glycan array binding signal (z-score),[25],0.026
same,glycan array binding signal (z-score),[26],-0.272
same,glycan array binding signal (z-score),[27],-0.078
same,glycan array binding signal (z-score),[28],-0.192
same,glycan array binding signal (z-score),[29],-0.164
same,glycan array binding signal (z-score),[30],-0.174
same,glycan array binding signal (z-score),[31],-0.153
same,glycan array binding signal (z-score),[32],-0.135
same,glycan array binding signal (z-score),[33],-0.096
same,glycan array binding signal (z-score),[34],-0.158
same,glycan array binding signal (z-score),[35],0.014
same,glycan array binding signal (z-score),[36],-0.094
same,glycan array binding signal (z-score),[37],-0.14
same,glycan array binding signal (z-score),[38],-0.272
same,glycan array binding signal (z-score),[39],-0.211
